According to the supplement of paper PMC8728848:
The other results are listed elsewhere or left out.

Experiments:
Assay in all cases: glycan array binding signal (z-score within array); higher = stronger binding
Details in all cases: glycan notation: IUPAC condensed, linker removed
[1] = target: Fuc(a1-2)Gal(b1-4)GlcNAc(b1-3)Gal(b1-4)GlcNAc(b1-3)Gal(b1-4)GlcNAc
Outline: (§1)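 Negative Z-scores can be read as non-binding. The Z-score is calculated within each array and then averaged across arrays of one protein sequence at different concentrations or buffers and across linkers. Arrays, 3228 in all, were curated from the Consortium for Functional Glycomics database and kept only where the protein sequence was available.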

[2] = target: Fuc(a1-2)Gal(b1-4)GlcNAc(b1-3)GalNAc
Outline: as §1

[3] = target: Fuc(a1-2)Gal(b1-4)GlcNAc(b1-3)[Fuc(a1-2)Gal(b1-4)GlcNAc(b1-6)]GalNAc
Outline: as §1

[4] = target: Fuc(a1-2)Gal(b1-4)GlcNAc(b1-3)[Fuc(a1-3)[Gal(b1-4)]GlcNAc(b1-6)]Gal(b1-4)Glc
Outline: as §1

[5] = target: Fuc(a1-2)Gal(b1-4)GlcNAc(b1-6)GalNAc
Outline: as §1

[6] = target: Fuc(a1-2)Gal(b1-4)GlcNAc6S
Outline: as §1

[7] = target: Fuc(a1-2)Gal(b1-4)[Fuc(a1-3)]GlcNAc
Outline: as §1

[8] = target: Fuc(a1-2)Gal(b1-4)[Fuc(a1-3)]GlcNAc(b1-2)Man(a1-3)[Fuc(a1-2)Gal(b1-4)[Fuc(a1-3)]GlcNAc(b1-2)Man(a1-6)]Man(b1-4)GlcNAc(b1-4)[Fuc(a1-6)]GlcNAc
Outline: as §1

[9] = target: Fuc(a1-2)Gal(b1-4)[Fuc(a1-3)]GlcNAc(b1-2)[Fuc(a1-2)Gal(b1-4)[Fuc(a1-3)]GlcNAc(b1-4)]Man(a1-3)[Fuc(a1-2)Gal(b1-4)[Fuc(a1-3)]GlcNAc(b1-2)Man(a1-6)]Man(b1-4)GlcNAc(b1-4)GlcNAc
Outline: as §1

[10] = target: Fuc(a1-2)Gal(b1-4)[Fuc(a1-3)]GlcNAc(b1-3)Gal(b1-4)[Fuc(a1-3)]GlcNAc
Outline: as §1

[11] = target: Fuc(a1-2)Gal(b1-4)[Fuc(a1-3)]GlcNAc(b1-3)Gal(b1-4)[Fuc(a1-3)]GlcNAc(b1-3)Gal(b1-4)[Fuc(a1-3)]GlcNAc
Outline: as §1

[12] = target: Fuc(a1-2)Gal(b1-4)[Fuc(a1-3)]GlcNAc(b1-3)GalNAc
Outline: as §1

[13] = target: Fuc(a1-2)Gal(b1-4)[Fuc(a1-3)]GlcNAc(b1-3)[Neu5Ac(a2-6)Gal(b1-4)GlcNAc(b1-6)]Gal(b1-4)Glc
Outline: as §1

[14] = target: Fuc(a1-2)Gal3S(b1-4)GlcNAc
Outline: as §1

[15] = target: Fuc(a1-2)Gal6S(b1-3)GlcNAc
Outline: as §1

[16] = target: Fuc(a1-2)Gal6S(b1-3)GlcNAc6S
Outline: as §1

Fuc(a1-2)Gal6S(b1-4)Glc = target: Fuc(a1-2)Gal6S(b1-4)Glc
Outline: as §1

[17] = target: Fuc(a1-2)Gal6S(b1-4)Glc6S
Outline: as §1

Fuc(a1-2)[Gal(a1-3)]Gal = target: Fuc(a1-2)[Gal(a1-3)]Gal
Outline: as §1

[18] = target: Fuc(a1-2)[Gal(a1-3)]Gal(b1-3)GalNAc
Outline: as §1

[19] = target: Fuc(a1-2)[Gal(a1-3)]Gal(b1-3)GalNAc(b1-3)Gal(a1-4)Gal(b1-4)Glc
Outline: as §1

[20] = target: Fuc(a1-2)[Gal(a1-3)]Gal(b1-3)GlcNAc
Outline: as §1

[21] = target: Fuc(a1-2)[Gal(a1-3)]Gal(b1-3)GlcNAc(b1-2)Man(a1-3)[Fuc(a1-2)[Gal(a1-3)]Gal(b1-3)GlcNAc(b1-2)Man(a1-6)]Man(b1-4)GlcNAc(b1-4)GlcNAc
Outline: as §1

[22] = target: Fuc(a1-2)[Gal(a1-3)]Gal(b1-3)GlcNAc(b1-2)Man(a1-3)[Fuc(a1-2)[Gal(a1-3)]Gal(b1-3)GlcNAc(b1-2)Man(a1-6)]Man(b1-4)GlcNAc(b1-4)[Fuc(a1-6)]GlcNAc
Outline: as §1

[23] = target: Fuc(a1-2)[Gal(a1-3)]Gal(b1-3)GlcNAc(b1-3)GalNAc
Outline: as §1

[24] = target: Fuc(a1-2)[Gal(a1-3)]Gal(b1-3)GlcNAc(b1-6)GalNAc
Outline: as §1

[25] = target: Fuc(a1-2)[Gal(a1-3)]Gal(b1-4)Glc
Outline: as §1

[26] = target: Fuc(a1-2)[Gal(a1-3)]Gal(b1-4)GlcNAc
Outline: as §1

[27] = target: Fuc(a1-2)[Gal(a1-3)]Gal(b1-4)GlcNAc(b1-2)Man
Outline: as §1

[28] = target: Fuc(a1-2)[Gal(a1-3)]Gal(b1-4)GlcNAc(b1-2)Man(a1-3)[Fuc(a1-2)[Gal(a1-3)]Gal(b1-4)GlcNAc(b1-2)Man(a1-6)]Man(b1-4)GlcNAc(b1-4)GlcNAc
Outline: as §1

[29] = target: Fuc(a1-2)[Gal(a1-3)]Gal(b1-4)GlcNAc(b1-2)Man(a1-3)[Fuc(a1-2)[Gal(a1-3)]Gal(b1-4)GlcNAc(b1-2)Man(a1-6)]Man(b1-4)GlcNAc(b1-4)[Fuc(a1-6)]GlcNAc
Outline: as §1

[30] = target: Fuc(a1-2)[Gal(a1-3)]Gal(b1-4)GlcNAc(b1-3)GalNAc
Outline: as §1

[31] = target: Fuc(a1-2)[Gal(a1-3)]Gal(b1-4)GlcNAc(b1-3)[Fuc(a1-2)[Gal(a1-3)]Gal(b1-4)GlcNAc(b1-6)]GalNAc
Outline: as §1

[32] = target: Fuc(a1-2)[Gal(a1-3)]Gal(b1-4)GlcNAc(b1-6)GalNAc
Outline: as §1

[33] = target: Fuc(a1-2)[Gal(a1-3)]Gal(b1-4)[Fuc(a1-3)]Glc
Outline: as §1

[34] = target: Fuc(a1-2)[Gal(a1-3)]Gal(b1-4)[Fuc(a1-3)]GlcNAc
Outline: as §1

[35] = target: Fuc(a1-2)[Gal(a1-3)]Gal(b1-4)[Fuc(a1-3)]GlcNAc(b1-3)GalNAc
Outline: as §1

B1: Clec18C (Homo sapiens) (protein)
chain: MLHPETSPGRGHLLAVLLALLGTAWAEVWPPQLQEQAPMAGALNRKESFLLLSLHNRLRSWVQPPAADMRRLDWSDSLAQLAQARAALCGTPTPSLASGLWRTLQVGWNMQLLPAGLVSFVEVVSLWFAEGQRYSHAAGECARNATCTHYTQLVWATSSQLGCGRHLCSAGQAAIEAFVCAYSPRGNWEVNGKTIVPYKKGAWCSLCTASVSGCFKAWDHAGGLCEVPRNPCRMSCQNHGRLNISTCHCHCPPGYTGRYCQVRCSLQCVHGRLREEECSCVCDIGYGGAQCATKVHFPFHTCDLRIDGDCFMVSSEADTYYRARMKCQRKGGVLAQIKSQKVQDILAFYLGRLETTNEVIDSDFETRNFWIGLTYKTAKDSFRWATGEHQAFTSFAFGQPDNHGFGNCVELQASAAFNWNNQRCKTRNRYICQFAQEHISRWGPGS
- glycan array binding signal (z-score) [1]: 0.393
- glycan array binding signal (z-score) [2]: 3.79
- glycan array binding signal (z-score) [3]: -0.48
- glycan array binding signal (z-score) [4]: 2.35
- glycan array binding signal (z-score) [5]: 0.162
- glycan array binding signal (z-score) [6]: 0.931
- glycan array binding signal (z-score) [7]: -0.492
- glycan array binding signal (z-score) [8]: -0.193
- glycan array binding signal (z-score) [9]: -0.419
- glycan array binding signal (z-score) [10]: -0.533
- glycan array binding signal (z-score) [11]: -0.579
- glycan array binding signal (z-score) [12]: 0.011
- glycan array binding signal (z-score) [13]: 0.205
- glycan array binding signal (z-score) [14]: 1.21
- glycan array binding signal (z-score) [15]: 0.717
- glycan array binding signal (z-score) [16]: -0.032
- glycan array binding signal (z-score) (Fuc(a1-2)Gal6S(b1-4)Glc): -0.452
- glycan array binding signal (z-score) [17]: -0.262
- glycan array binding signal (z-score) (Fuc(a1-2)[Gal(a1-3)]Gal): -0.382
- glycan array binding signal (z-score) [18]: -0.384
- glycan array binding signal (z-score) [19]: -0.571
- glycan array binding signal (z-score) [20]: -0.435
- glycan array binding signal (z-score) [21]: -0.479
- glycan array binding signal (z-score) [22]: -0.398
- glycan array binding signal (z-score) [23]: 0.473
- glycan array binding signal (z-score) [24]: -0.329
- glycan array binding signal (z-score) [25]: -0.393
- glycan array binding signal (z-score) [26]: -0.591
- glycan array binding signal (z-score) [27]: -0.021
- glycan array binding signal (z-score) [28]: 1.04
- glycan array binding signal (z-score) [29]: 0.417
- glycan array binding signal (z-score) [30]: -0.517
- glycan array binding signal (z-score) [31]: -0.31
- glycan array binding signal (z-score) [32]: -0.568
- glycan array binding signal (z-score) [33]: -0.56
- glycan array binding signal (z-score) [34]: 0.762
- glycan array binding signal (z-score) [35]: -0.17
